In PubChem BioAssay AID686978 (National Center for Advancing Translational Sciences (NCATS), 2013):
Hit rate of the full screen: of about 420,000 compounds, about 64,000 (15%) were called active. The shares of active, inactive and inconclusive entries below differ from those in the screen. Calls follow the shape of the dose curve; as a rule, active = well fitted inhibition curve with a large enough effect; inconclusive = small, poorly fitted or top-dose-only effect; inactive = flat fitted curve, though single readings scatter. No potency is given beside an inconclusive call; the fits are too rough.

Experiment: qHTS for Inhibitors of human tyrosyl-DNA phosphodiesterase 1 (TDP1): qHTS in cells in absence of CPT; also: nearly all actives have a fitted effect of over 55% in size
Conditions: DT40 Tdp1-/- hTDP1 cells, no CPT, ATP luminescence, 48 h; activity change, negative = growth inhibition: at 46.2 µM (top of the series) unless noted
Outline: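 Seeded 400 DT40-hTDP1 cells/well (vehicle DMSO, no 20 nM CPT); pinned compounds; ≥48 hr at 37 °C; CellTiter-Glo luminescence as viability measure.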
% is scaled to controls: 0 for no effect and ±100 for the full control effect; potency is read from the fitted curve at half-maximal effect; tags tell the direction and shape of the fitted curve.

| SMILES | Potency | activity change, negative = growth inhibition |
| --- | --- | --- |
| CCNC(=S)N1CCNC(=O)C1CC(=O)OC (stereo not given) | inactive |  |
| CCOc1ccc2nc(NC(=O)c3ccc(C)o3)sc2c1 | active: 18.4 µM |  |
| CCOC(=O)c1noc2ncnc(Nc3ccc(F)cc3F)c12 | inactive |  |
| COCCNC(=S)N1CCC2CC1c1cc(-c3ccc4c(c3)OCO4)ccc12 (stereo not given) | inconclusive [inhibitor, single point] |  |
| C/C=C(\C)CN1CCC(Oc2cccc(C(=O)NCc3ccccn3)c2)CC1 | inconclusive [inhibitor, single point] |  |
| COCCN(C(=O)c1ccccc1OC1CCN(S(C)(=O)=O)CC1)C(C)C | inconclusive [inhibitor, single point] |  |
| Cc1ccc(NC(=O)C2Cc3ccccc3CN2C(=O)c2ccccc2)cc1Cl (stereo not given) | inconclusive [inhibitor, partial curve] |  |
| Cc1cc(N2CCN(C(c3ccccc3)c3ccccc3)CC2)n2ncnc2n1 | inconclusive [inhibitor, partial curve, poor fit] |  |
| Cc1ccc(S(=O)(=O)N(CC(=O)N2CCCC2)C2CCCCC2)cc1 | inconclusive [inhibitor, partial curve] |  |
| CC(=O)c1ccc(S(=O)(=O)Nc2cccc(-c3ccc(N4CCCCC4)nn3)c2)cc1 | inconclusive [inhibitor, single point] |  |
| Cn1cc(S(=O)(=O)N2CCCCCC2)cc1C(=O)N1CCN(c2cccc(Cl)c2)CC1 | inconclusive [inhibitor, single point] |  |
| O=[N+]([O-])c1cc(-c2nc(-c3ccccc3)no2)ccc1N1CCN(c2ccccc2)CC1 | inconclusive [inhibitor, full curve] |  |
| CCOC(=O)CSc1nc2c(sc3ccccc32)c(=O)n1CCc1ccccc1 | inconclusive [inhibitor, full curve, poor fit] |  |
| CCOc1ccc(/C=N/NC(=O)c2ccc(CSc3nc4ccccc4[nH]3)cc2)cc1 | active: 23.1 µM |  |
| O=C(CSc1ncccn1)NC1CCCC1 | inactive |  |
| C=CCNC(=O)c1ccsc1N | inconclusive [inhibitor, single point] |  |
| O=C(Nc1ccc(S(=O)(=O)Nc2ncccn2)cc1)c1cccc(S(=O)(=O)N2CCOCC2)c1 | inconclusive [inhibitor, single point] |  |
| COc1ccc(-c2cc3nc4n(c(=O)c3s2)CCC4)cc1 | inconclusive [inhibitor, partial curve] |  |
| Cc1ccccc1-c1cc(C(=O)NCc2cccc(Br)c2)nn1CC1CC(c2cccc([N+](=O)[O-])c2)=NO1 (stereo not given) | inconclusive [inhibitor, partial curve, poor fit] |  |
| FC(F)Oc1ccc(NC(=S)Nn2cnnc2)cc1 | inconclusive [inhibitor, single point] |  |
| CCOc1ccc(OCCC(=O)OCC(=O)NCc2ccc(Cl)cc2)cc1 | inactive |  |
| CCOC(=O)c1ccccc1NC(=O)COC(=O)CCNS(=O)(=O)c1ccc(C)c(C)c1 | inconclusive [inhibitor, single point] |  |
| Cc1cc2c(cc1C)/C(=N/NC(=O)c1ccccn1)CCC2 | active: 23.1 µM |  |

| SMILES | Potency | activity change, negative = growth inhibition |
| --- | --- | --- |
| CC(C)[C@H](NC(=O)OC(C)(C)C)c1cc(C(=O)N2CCOCC2)c(N)s1 | inconclusive [inhibitor, single point] |  |
| Cc1ccc(OS(=O)Nc2cccc3nccnc23)cc1 (stereo not given) | inconclusive [inhibitor, single point] |  |
| O=C(NC(=S)NC1CCCCC1)c1ccc(Cl)cc1 | inactive |  |
| O=C(NCc1ccc(F)cc1)c1cc(C2CCCCN2C(=O)c2ccc3c(c2)CCO3)on1 (stereo not given) | active: 18.4 µM |  |
| COc1cccc(C(NC(C)=O)c2nc(-c3ccc(F)c(Cl)c3)cs2)c1 (stereo not given) | inactive |  |
| CC(=O)c1c(C)[nH]c(C(=O)CN2CCN(S(=O)(=O)c3ccccc3)CC2)c1C | inconclusive [inhibitor, partial curve] |  |
| CC(C)N(Cc1ccccc1)C(=S)Nc1ccc(OC(F)F)cc1 |  | inconclusive: -31% [inhibitor] |
| COc1ccccc1NC(=O)c1ccc(SCC(=O)NCc2ccccc2Cl)c([N+](=O)[O-])c1 | inconclusive [inhibitor, partial curve, poor fit] |  |
| CC(=O)Nc1sc(C)c(C)c1C(=O)OC(C)C | inconclusive [inhibitor, partial curve, poor fit] |  |
| Nc1c(Cl)ncnc1NCCO | inactive |  |
| CCN1CCN(CCCNC(=O)c2ccc3c(=O)n(CCc4ccccc4)c(=O)[nH]c3c2)CC1 | inconclusive [inhibitor, single point] |  |
| COc1cc(C)nc(N2CCCC(C(=O)Nc3cc(Cl)ccc3OC)C2)n1 (stereo not given) | inconclusive [inhibitor, partial curve] |  |
| Cc1c(OCc2ccc([N+](=O)[O-])cc2)ccc2c3c(c(=O)oc12)CCC3 |  | inconclusive: -38.5% [inhibitor] |
| CC(=O)N1CCC(=NNS(=O)(=O)c2cccc([N+](=O)[O-])c2)CC1 | inactive |  |
| COc1cccc(CN(C)C(=O)c2ccccc2Sc2ccccc2C#N)c1OC | inconclusive [inhibitor, single point] |  |
| CCCOc1ccc(N/C=C/C(=O)C(C)(C)C)cc1 | inactive |  |
| CSc1ccc(CN(C)CC(=O)NC(C)c2ccccc2)cc1 (stereo not given) | inconclusive [inhibitor, single point] |  |
| CC(=O)OC1C[C@@]2(C)C(c3ccoc3)OC(=O)C3O[C@@]32[C@]2(C)C(OC(C)=O)CC3C(C)(C)C(OC(C)=O)CC(OC(C)=O)[C@@]3(C)C12 (stereo not given in full) | inactive |  |
| O=C(CSCc1cccs1)N1CCCC1 | inactive |  |
| Cc1ccccc1S(=O)(=O)NC(=O)C1(C)CCN1C(=O)CC(c1ccccc1)c1ccccc1 (stereo not given) | active: 5.8 µM |  |
| CC(Sc1nnc(CC(=O)Nc2ccccc2F)n1C)C(=O)Nc1nccs1 (stereo not given) | inactive |  |
| COc1ccccc1N1CCN(C2CCCN(C(=O)c3oc(C)cc3C)C2)CC1 (stereo not given) | inconclusive [inhibitor, single point] |  |
